Measured values: paper PMC4336329 (PLoS ONE, 2015)
Among all 310,000 compounds or so, about 14,000 (4.5%) showed an effect of 50% or more. Effects have a minus sign here. Some of the results follow.

biological target: human ether-à-go-go-related gene (hERG) potassium channel (human, UniProt Q12809); assay: primary screen, population patch clamp on CHO cells stably expressing hERG
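Also: peak tail current of the secondary pulse compared with the same well before compound.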

Sequence of human ether-à-go-go-related gene (hERG) potassium channel (Q12809 whole entry, looked up): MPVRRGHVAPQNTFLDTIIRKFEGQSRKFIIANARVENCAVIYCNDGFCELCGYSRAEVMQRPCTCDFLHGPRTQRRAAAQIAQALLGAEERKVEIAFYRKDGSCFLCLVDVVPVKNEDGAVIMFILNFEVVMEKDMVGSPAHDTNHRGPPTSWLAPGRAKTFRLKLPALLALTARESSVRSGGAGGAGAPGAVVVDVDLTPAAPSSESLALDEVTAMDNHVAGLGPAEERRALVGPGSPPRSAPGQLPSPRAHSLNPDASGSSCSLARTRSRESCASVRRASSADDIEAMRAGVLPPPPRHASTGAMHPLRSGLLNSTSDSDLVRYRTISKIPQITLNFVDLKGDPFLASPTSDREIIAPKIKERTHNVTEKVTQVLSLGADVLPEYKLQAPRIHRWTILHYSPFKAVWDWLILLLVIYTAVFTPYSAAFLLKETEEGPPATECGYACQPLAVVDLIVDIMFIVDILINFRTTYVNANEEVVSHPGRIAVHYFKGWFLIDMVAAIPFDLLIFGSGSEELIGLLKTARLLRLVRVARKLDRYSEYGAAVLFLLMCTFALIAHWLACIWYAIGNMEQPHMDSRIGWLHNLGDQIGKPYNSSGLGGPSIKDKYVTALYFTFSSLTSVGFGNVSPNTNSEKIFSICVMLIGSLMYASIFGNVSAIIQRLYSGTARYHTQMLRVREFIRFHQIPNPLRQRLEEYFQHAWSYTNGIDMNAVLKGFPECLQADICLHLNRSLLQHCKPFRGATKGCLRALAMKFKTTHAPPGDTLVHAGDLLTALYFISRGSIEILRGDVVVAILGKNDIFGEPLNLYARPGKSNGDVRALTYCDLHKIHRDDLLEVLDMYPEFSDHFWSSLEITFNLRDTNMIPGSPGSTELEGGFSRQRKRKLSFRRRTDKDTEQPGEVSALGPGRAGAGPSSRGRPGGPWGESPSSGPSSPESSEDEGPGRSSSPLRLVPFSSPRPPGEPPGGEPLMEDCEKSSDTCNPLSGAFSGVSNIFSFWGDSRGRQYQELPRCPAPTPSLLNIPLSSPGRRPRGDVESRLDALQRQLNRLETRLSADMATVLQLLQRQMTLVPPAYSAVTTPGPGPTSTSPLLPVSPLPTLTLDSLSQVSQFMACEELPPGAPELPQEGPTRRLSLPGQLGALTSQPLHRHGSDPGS

In order of rising “hERG current change (%, negative = inhibition) at 10uM” value:
1. O=C(CS(=O)(=O)c1cn(Cc2ccc(Cl)cc2)c2ccccc12)N1CCCC1  -40.5%
2. Cc1ccc(CN(CC(=O)NCCc2ccccc2)C(=O)CCCC(=O)Nc2cc(C)on2)cc1  -38.2%
3. CC1CN(C(=O)c2ccccc2OCc2ccc(Cl)cc2Cl)CC(C)O1 (stereo not drawn)  -37.7%
4. Cc1nccn1CCOc1ccccc1Cl  -35.1%
5. CCOC(=O)C(C)N1N=C(/C=C/c2ccc(C)cc2)CCC1=O (stereo not drawn)  -30%
6. CC1(c2cccs2)CC(c2cccs2)=C(C#N)C(=O)N1 (stereo not drawn)  -18%
7. O=C(CSc1nnc(-c2ccc(O)cc2)n1Cc1ccco1)c1ccccc1  -17.5%
8. O=c1ncn(-c2cccc([N+](=O)[O-])c2)c2ccccc12  -15.6%
9. CC(=O)Nc1ccc(NC(=O)C(C)OC(=O)c2c(C)nn(-c3ccccc3)c2Cl)cc1 (stereo not drawn)  -14.8%
10. COc1ccc(-n2cc(C(=O)c3cc(Cl)ccc3O)cc(C#N)c2=O)cc1  -14.5%
11. COC(=O)c1c(C)[nH]c(C(=O)C(C)OC(=O)c2cc(C)oc2C)c1C (stereo not drawn)  -12.7%
12. CC1=C(C(N)=O)C(c2ccccn2)n2nc(SCc3ccccc3)nc2N1 (stereo not drawn)  -11.9%
13. Cc1ccc(CNC(=O)c2ccc3c(=O)n(CC4CCCO4)c(=S)[nH]c3c2)cc1 (stereo not drawn)  -9.6%
14. CC(NC(=O)C1CCN(S(=O)(=O)c2ccc3c(c2)NC(=O)CO3)CC1)c1ccccc1 (stereo not drawn)  -7.39%
15. COc1ccc(N(CC(=O)Nc2ccc3c(c2)OCCO3)S(=O)(=O)c2c(C)noc2C)cc1  -6.74%
16. CC(C(=O)NCC(=O)Nc1ccc(F)c(F)c1F)N1CCN(c2ccc(O)cc2)CC1 (stereo not drawn)  -6.1%
17. COc1ccccc1CNS(=O)(=O)c1c(C)[nH]c(C)c1C(=O)N1CCCCC1  -5.86%
18. OCCn1c(SC2CCCCC2)nc2ccccc21  -4.3%
19. CCN1CCN(C(=S)Nc2cc(S(=O)(=O)N(CC)CC)ccc2C)CC1  -4.25%
20. CCOC(=O)Cn1c(-c2ccccc2)nc2ccccc2c1=O  -2.89%
21. COc1cc(NC(=O)NCC2CCN(Cc3ccccc3C)CC2)cc(OC)c1OC  -2.71%
22. O=C(CN1CSCC1=O)N1CCN(S(=O)(=O)c2cccc(F)c2)CC1  -2.67%
23. CC(OC(=O)c1cc2ccccc2o1)C(=O)Nc1ccc(N2CCOCC2)cc1 (stereo not drawn)  -0.616%
24. Cc1ccc(C2(C)NC(=O)N(CC(=O)Nc3ccccc3N3CCCC3)C2=O)cc1 (stereo not drawn)  0.923%
25. Cc1nc2sc3c(c2c(=O)[nH]1)CCCCC3  2.03%
26. CCCOc1ccc(N2C(=O)CC(N(Cc3ccco3)C(C)=O)C2=O)cc1 (stereo not drawn)  2.43%
27. O=C(COc1ccccc1)NC(NC(=S)Nc1ccccc1O)C(Cl)(Cl)Cl (stereo not drawn)  2.52%
28. C=C(C)Cn1c(SCC)nc2ccccc2c1=O  3.13%
29. COc1ccc(-c2cc(C(=O)N3CCCC3)c3ccccc3n2)cc1OC  5.86%
30. CCOC(=O)C1CCN(c2c(-c3ccccc3)c3cc(Cl)ccc3[nH]c2=O)CC1  6.71%
31. CCN1CCCc2cc(CN(CCN3CCOCC3)C(=S)Nc3ccccc3C)ccc21  7.32%
32. CCOc1cc(C(C#N)N2CCOCC2)ccc1OC (stereo not drawn)  8.94%
33. COCCSc1ccccc1C(=O)N1CCN(c2ccccc2)CC1  9.14%
34. Cc1c(NC(=O)C(C)OC(=O)c2cccnc2Cl)c(=O)n(-c2ccccc2)n1C (stereo not drawn)  9.23%
35. O=C(Nc1nnc(-c2ccco2)o1)c1ccc2ccccc2c1  10.1%
36. COc1ccc(S(=O)(=O)N2CCNCC2)cc1  10.9%
37. COc1ccc(OCC(=O)NNC(=O)c2cccs2)cc1  11.4%
38. COc1cccc(Nc2ncnc3sccc23)c1  11.4%
39. C/C=C/c1ccc(OCC(=O)O)c(OC)c1  12.4%
40. Cc1nc(-c2ccccc2)sc1C1(C)CC(c2cccc(F)c2)=NO1 (stereo not drawn)  13.4%
41. CCOc1cc(/C=N\NC(=O)Cn2nc([N+](=O)[O-])cc2C)ccc1OCc1cccc2ccccc12  14.2%
42. CC(/C=N/n1c(COc2ccccc2)n[nH]c1=S)=C\c1ccccc1  14.7%
43. Cc1c(C(=O)Nc2cccc([N+](=O)[O-])c2)csc1-c1ccccc1  16.3%
44. Cc1cccc(NC(=O)c2cc(S(=O)(=O)N3CCCC3)cn2C)c1  17.2%
45. O=C(COC(=O)Cc1ccc(-c2ccccc2)cc1)NCc1ccccc1  20.8%
